Test results: the supplement of paper PMC11417369
± gives the standard deviation of the averaged measurements. The list shows a part of the results.

These sequences were tested on PfAP2-I AP2 domain 3 (GST-tagged) (assay: gcPBM binding intensity (ln(normalized median fluorescence intensity)); higher = stronger DNA binding).
Summary of the method: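 After 1 h on an Agilent 4 × 180k array of primer-extended double-stranded 36-bp intergenic genomic probes and negative controls, bound GST-tagged P. falciparum DNA-binding domains were detected with Alexa488 anti-GST antibody and scanned at 488 nm. The domains had been expressed in E. coli, and binding took place in 1× PBS with 1% milk, 0.2 mg/ml BSA, 0.5% salmon testes DNA and 0.03% Triton X-100. Binding intensity is the highest Masliner-normalised natural-log median intensity across replicate spots of either probe orientation.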

Row | Sequence | gcPBM binding intensity (ln)
1 | ATTACATTTTTAATGCGTACTAAAAATGTATATAAG [XGTACX_site6384] | 7.96 ± 0.3
2 | AATATAAAAATGTTTACACACACACCCAAATATATT [CACACA_site2511] | 8.02 ± 0.49
3 | AGAATTACTTAAAAAAGTACATAAAATTATTTAAAA [XGTACX_site2205] | 7.64 ± 0.21
4 | AAAAGTCTCTTTTTAGTGCACATTTTATTTAAATAT | 11.32 ± 0.078
5 | CAGATAAGGTGAAGCTGTACAAAAATGTTTTATAAC [XGTACX_site6783] | 7.78 ± 0.69
6 | TCTAATTATCACATTGCACACACATTTCCTTTTACA [CACACA_site9140] | 8.97 ± 0.34
7 | TAATTAATTTATGTAACACACATTGTTGATTCAATA [CACACA_site1098] | 7.73 ± 0.44
8 | TTATACTGTATAGTCGCACACAAAAATATAAAATAT [CACACA_site3869] | 7.84 ± 0.43
9 | ATTTTAATAAACACTTACATGTTTTCCAAATTGTAT [CACACA_negctrl_site1807] | 7.46 ± 0.61
10 | TTCGTTAAAAATAAATGTACATAAATAAACCTTATT [XGTACX_site621] | 7.71 ± 0.3
11 | ATATTAAGAATGTATACATGCATATATATATAGTAC [TGCATGCA_site219] | 8.16 ± 0.63
12 | TATTAATAAATATGTTTACACACGAAAATACATTTT [CACACA_site1012] | 7.64 ± 0.73
13 | AAAGATTTAGAAAATGAACACACGAGCACCCACCGA [CACACA_site1017] | 8.99 ± 0.29
14 | GAAAGAGAGATATATACACACATATTTATATTTTTA [CACACA_site7057] | 7.52 ± 0.49
15 | ATGGAATATTTCATGATTTTTTTAATTTTTTTATTG [XGTACX_negctrl_site55] | 7.17 ± 0.76
16 | ATTTTCATATTTTTATGTACATATTATAAGAATATA [XGTACX_site3691] | 7.92 ± 0.32
17 | TATCTTTTTTTTAATACACACAAATTTATGAAAGTA [CACACA_site7879] | 8.01 ± 0.4
18 | TGTCTTTATATATATTTATTTTTTAGTATTACATAA [CACACA_negctrl_site21] | 7.83 ± 0.6
19 | TGTATAAATAAATGCGTACACACTAATAAAAAAAAA [CACACA_site858] | 8.22 ± 0.46
20 | AAAAAAAATATGATGAGTACACAATAATACATGCAA [XGTACX_site6999] | 8.04 ± 0.44
21 | TTATGTAAATAATTTTGTACTTAAATTATTATATAA [XGTACX_site1491] | 7.49 ± 0.28
22 | CAACTTTTTGAAAATTGTACATGACATATATATATA [XGTACX_site260] | 9.29 ± 0.38
23 | GTGGTTATATATTAAGTGCATATTATAATTTTAAAC | 9.56 ± 0.14

Row | Sequence | gcPBM binding intensity (ln)
24 | AATATCTAAAATGTGTGTACATAATATTTTTAATAT [XGTACX_site3831] | 7.78 ± 0.4
25 | ATAGATAAAAAATTATTTATTTAGAATTTTTATGTA [CACACA_negctrl_site400] | 7.29 ± 0.38
26 | TTTATTCCAGTATTCACACACGAATAACCACATAAC [CACACA_site5104] | 7.93 ± 0.42
27 | TATATAAGAGGAAAAAGTACAGAAAAACAAAGAGAA [XGTACX_site2926] | 8.34 ± 0.8
28 | TGTATTTATAGCAATACACACATAACAATAAATATA [CACACA_site3328] | 7.67 ± 0.41
29 | ATAATTCTTTATTATAGTACACAAACTTTCAAAACA [XGTACX_site3597] | 7.99 ± 0.33
30 | CTATACATATTATATAGTACTTTATTATTATGACTA [XGTACX_site1382] | 7.74 ± 0.43
31 | AAGAAAATATAAATATGTACTTAATAATTTATTTAT [XGTACX_site8100] | 7.5 ± 0.47
32 | AAAAAAGAGGGATACACACAAACATATATATATATA [CACACA_site2243] | 9.25 ± 0.24
33 | ACAAAACATATATTCTGTACATATATAATGGTGACT [XGTACX_site6796] | 7.55 ± 0.54
34 | TTTATATCTTATTATAGGAAAATGAATATTTTCTCT [TGCATGCA_negctrl_site478] | 7.3 ± 0.49
35 | TTTATTTTAAAATTTACACACAAAAGGATTTATAGA [CACACA_site2338] | 7.77 ± 0.37
36 | TATATTAATTAACAGTGTACAAAAAAAAATAAAAAA [XGTACX_site3702] | 8.04 ± 0.47
37 | AAAATAAAAAGAAATTGTACGTATAATAATATATTT [XGTACX_site7593] | 7.87 ± 0.37
38 | AGGATACACGGACACACACACATATATATATATATA [CACACA_site4654] | 9.59 ± 0.49
39 | TATTAAAATAACATACGTACATAAGTATATAAAAAA [XGTACX_site1769] | 7.88 ± 0.4
40 | TATTTACACAAAATAAAATATATTATATATATATAT [TGCATGCA_negctrl_site381] | 9.06 ± 0.071
41 | TTGCACAGATTAATCAAAAATTTTAAACCAAATATA [XGTACX_negctrl_site38] | 7.82 ± 0.38
42 | AGAATAGAATAAAAAACACACATTTACAACATTATT [CACACA_site3894] | 7.66 ± 0.58
43 | TATATGGAGAGATATGCACACTGTATGAATGCCCCC [CACACA_site8853] | 10 ± 0.31
44 | TATTTATACATAGGTGGTACTACTTTAAACAAAAAA [XGTACX_site5062] | 8.06 ± 0.26
45 | AAATAAATAATATTCACACATAAAAAAAATGGAGTT [CACACA_site4525] | 7.58 ± 0.65
46 | GTGCAATATTTATTTTGTACATATTTATCAATAAAC [XGTACX_site8297] | 10.5 ± 0.77

Row | Sequence | gcPBM binding intensity (ln)
47 | TTATATTTTTACAAGAGTACATATATATATATATAT [XGTACX_site5383] | 9.47 ± 0.49
48 | ATTAAATATATTAAATGTACATAATATATATATATA [XGTACX_site5032] | 9.35 ± 0.11
49 | TCAAACCAGTTGATGTGTACACATATAGTAATAATT [XGTACX_site6014] | 8.05 ± 0.38
50 | TTTATTTGATGAACATGTACAAAAAAACAAAGAACA [XGTACX_site823] | 8.08 ± 0.38
51 | ATAAAAATAAAATGGACACACATATATACCTATTTG [CACACA_site5761] | 7.71 ± 0.48
52 | TGATATTTTATTATTAAAATATATACATATATATAT [CACACA_negctrl_site1456] | 8.93 ± 0.071
53 | AAGAAAAAAAAAAAAAAAGATACTTTTTTAAAACTA [TGCATGCA_negctrl_site13] | 7.33 ± 0.39
54 | TTTTTTATATTGATATTTATTAAATATGAAATGTTA [GTGCAC_negctrl_site405] | 7.47 ± 0.28
55 | TGAAAAAAGAAAAATACACACATATAATATAATATA [CACACA_site2255] | 7.62 ± 0.77
56 | TTATATAAGATATTTCGTACACATTCAAAAATTATG [XGTACX_site7375] | 7.69 ± 0.42
57 | AATAAAATATAAGGGGGTACGGAGAAAGGATACTAT [XGTACX_site7733] | 8.09 ± 0.57
58 | CATACACCCCAACACACACACACACCCATATATAAT [CACACA_site8097] | 8.17 ± 0.38
59 | AAAAAAAAAAAAAAAAGTACATATATTATATATATA [XGTACX_site2983] | 8.72 ± 0.37
60 | CACGCACGCACATACACACACATACACATATAAATA [CACACA_site6907] | 8.35 ± 0.26
61 | ATGTTGTTCATAAATATATTATTTTTAAATGTACAA [GTGCAC_negctrl_site507] | 7.67 ± 0.58
62 | ATATATATTATTGAATGTACATAATTATTTAATAGT [XGTACX_site4971] | 8.23 ± 0.31
63 | ATATATTCACGTTAATGTACACATAATAAATTATAT [XGTACX_site5481] | 8.04 ± 0.42
64 | GTATTTAGATGATTAACACACATATGTGTATTAATA [CACACA_site6733] | 7.92 ± 0.41
65 | TATTCACTGATATGTTGTACATAAAAAAAATTAAAT [XGTACX_site6128] | 7.82 ± 0.49
66 | AATTATATTGGTTGTAGTACTAAAAGTAAGTTAATG [XGTACX_site33] | 7.96 ± 0.5
67 | AGCTCTCAAAATTATTCACACGTGTCCTGTTATATA [CACACA_site5415] | 8.36 ± 0.57
68 | ATATTTCATTAATGAACACACAAAGAGGTATATAAA [CACACA_site1519] | 8 ± 0.53
69 | ATATTTAAAAATATAGTGCAATTATTCTAATGTGTT | 9.96 ± 0.25

Row | Sequence | gcPBM binding intensity (ln)
70 | AAATAAAAGGTTGAGAGTACATTTTTGTGTATGTAT [XGTACX_site5547] | 7.81 ± 0.68
71 | AAAAAAAAAATACAACAAAGTTAAATAAATAAATAA [GTGCAC_negctrl_site402] | 7.67 ± 0.84
72 | ATATATTATTTTAAATGTACTCATAATAGAAATGTC [XGTACX_site40] | 8.04 ± 0.12
73 | ATATAAAGAAAAGGAACACACAAATATATATATATA [CACACA_site463] | 9.08 ± 0.099
74 | CACACAGGTAAAAAGGTGCAGTTGAAATATTCCTCA [GTGCAC_site9730] | 10.13 ± 0.028
75 | GAAATAAATATATATGCATGTACTTTAATATTATTA [TGCATGCA_site904] | 7.94 ± 0.71
76 | TAAATATATTCATAAAGTACAAAGCAAAATTGTCTA [XGTACX_site7274] | 7.63 ± 0.57
77 | GTGCTTATTTATACATGTACAAATGATAAGTTTGTA [XGTACX_site169] | 9.115 ± 0.049
78 | AGGTGATTGATATATACACACATACCTATATTTATA [CACACA_site7348] | 7.67 ± 0.5
79 | TGTTTATTTAATAATATTTTTTTTTTTATTATATTA [XGTACX_negctrl_site56] | 7.2 ± 0.66
80 | TTATTAAAATATTCTAGTACATATAAAAGGAGAACA [XGTACX_site4374] | 7.99 ± 0.2
81 | AATGGAAAAAAAAAAATAAATACAAATAAATACAAA [GTGCAC_negctrl_site407] | 7.58 ± 0.79
82 | TATTTTTTTCTTACTACACACATATATATGCTTTCC [CACACA_site4058] | 8.12 ± 0.58
83 | TTATATTATACATACACACCCATATAACATGTTTTT [CACACA_site6539] | 7.92 ± 0.73
84 | TCATTAATATTTCATAGTACAATTTTGTCTAATTGT [XGTACX_site6720] | 7.51 ± 0.37
85 | AAAAAATAATAATAATGTACAAATAAAATAAAAACA [XGTACX_site6568] | 7.94 ± 0.65
86 | AAGGAATATGTATATACACACAGGTACATATATATA [CACACA_site441] | 8.16 ± 0.71
87 | ATATATTTTTACCATACACACATATAATAAATATAT [CACACA_site3722] | 7.96 ± 1
88 | TCGTGTGAAAATATTACACACATTTACTATAGTATC [CACACA_site7590] | 8.19 ± 0.72
89 | ATAAAAATTGAAACATGTACACATATTCATTTTATA [XGTACX_site7968] | 7.62 ± 0.24
